Laboratory results reported in PubChem BioAssay (NCI).
A structure can be active in one record and inactive in another.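 Treatment: one concentration, 48 hours, 96-well format. Scoring: percent growth, with anything below 10 considered active.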 The source holds more than one record for some entries. They are shown here; other results are not. An entry can have further records. These are repeated runs of one drug, at the concentration stated with the values; one value stands for one run. Counts like (3×) give the number of equal values in this list.

System: MDA-MB-435 melanoma
Assay: NCI-60 one-dose screen, 48 h (100 = growth as untreated, 0 = no growth, -100 = all killed)

For COc1cccc2c1C(=O)c1c(O)c3c(c(O)c1C2=O)C[C@@](O)(C(=O)CO)C[C@@H]3OC1CC(N)C(O)C(C)O1 (stereo not given in full), the growth (0.25 µM, runs of 2013) was “inactive: 52, 51.3 (2×), 53.7, 50.3, 57.4, 59.7, 68.9, 67.7 (2×), 71.7 (2×), 62.6, 68.1, 61, 58.5, 65.8, 71.3 (2×), 65.7, 70.5 (3×), 68.6, 65.6, 69.9, 69, 74.1 (2×), 66.7, 69.4 (2×), 75.9, 73, 70.6 (2×), 70.8, 73.5 (2×), 71.4, 70.3 (2×), 73.9 (2×), 74.7, 77.1, 73.4, 72.2, 73.1, 75, 68 (2×), 75.2, 67.3, 68.5, 53, 59.8 (2×), 62.8, 52.3, 62, 62.1, 67.1, 53.9, 54.7, 56, 59.9%”, the growth (0.25 µM, runs of 2014) was “inactive: 58.7, 53.1, 60.9 (2×), 61.1, 59.8, 51.7, 56.5, 58.5, 56.6, 59.9 (3×), 46.4, 60.8, 55.1 (2×), 58.3 (2×), 68.6, 59.1, 68.7, 56, 69.1, 65.8, 66.5, 53.5, 55.9 (2×), 62.6, 61.2, 62.8 (2×), 67.2, 65.3, 66.7, 70.1, 62.9, 62.2, 64.2, 61.6, 72.2, 68, 62.3, 61.3, 63.3, 61.8, 54, 62.1, 57.8, 67.5, 54.2 (2×), 57.5, 68.9 (2×), 61, 56.3, 65, 63.4, 58.4, 69.6, 62.5, 63.5, 68.5, 63.7%” and the growth (0.25 µM, runs of 2015) was “inactive: 72.1, 64.2, 64.4 (2×), 58.6, 63.5 (2×), 67.1 (2×), 75.2, 63.4, 58.9 (3×), 68.7 (3×), 69.2 (2×), 63.1 (2×), 71.3, 59.6, 59.5, 66.9, 54.5, 62.2, 67.6, 61.8, 59.3 (2×), 56.3, 60.3, 64.6, 62.5, 64.9, 61.3 (2×), 63.2, 48.8, 67.7 (2×), 65.7, 61.4, 66.5 (2×), 48, 77.2, 63.7, 55.9, 46.6, 56.5, 79.7, 58.5, 62.1, 63.3, 60.9, 68.6, 71.4, 77.3, 69.1, 74.5, 71, 76.1, 76.4, 62.8, 70.1 (2×), 70.5, 69, 75.1, 75.8%”. For the same molecule, the growth (0.25 µM, runs of 2016) was “inactive: 68.6 (2×), 63.5, 66.6 (2×), 66.9 (3×), 69.9 (3×), 67.3, 70.7 (2×), 59.1 (2×), 59.8, 56.5 (3×), 51.5 (2×), 61 (2×), 56.6, 54.1, 59.3, 66.5 (2×), 52.7, 57, 54.7, 61.5, 61.3, 64.4, 60.9 (2×), 64.6, 71.4, 67.6, 74.6, 74.4 (2×), 71.5, 77.1 (2×), 68.7, 62.2, 63.7, 61.6, 70.1 (2×), 69.6, 65.4, 71, 68.2, 74, 71.7, 75.9, 68.1, 72.6, 77.5, 76.5, 77.3, 71.8, 74.2, 80.4, 75.8, 68.9, 67.2, 68.4, 72.5, 69.4%”, the growth (0.25 µM, runs of 2017) was “inactive: 68.5 (2×), 66.3, 69.4, 65.6, 79.3, 78.7, 59.8 (2×), 68, 61.7 (2×), 57.9, 63.4, 62.5 (2×), 61.3 (3×), 55, 55.1, 59.5, 56.2, 54.8 (2×), 59.7, 58.8 (2×), 56.9, 62.2, 61 (2×), 60.7, 62.6 (2×), 56.3, 61.6, 63.2 (2×), 60.3 (3×), 56.4, 61.5, 65.4, 70.2, 58.7 (2×), 62.9, 62.3, 65.7, 64.6, 59.4 (2×), 68.9, 68.1, 62.8, 59.1, 68.2, 57.7, 56.6, 64.9, 59, 69.7, 69, 70.7, 69.1, 61.8, 66.6%” and the growth (0.25 µM, runs of 2018) was “inactive: 64.9, 68.2 (2×), 65.2 (2×), 67.5, 63.3 (2×), 70.9, 65.1, 61.5, 59.3, 65.4 (3×), 71.5, 73.3, 72.5, 80.6, 73.4, 70.3, 68.4 (2×), 67.2, 62.2 (2×), 64.6, 65.8 (2×), 69.2, 63.1, 63.5, 76, 70.8, 62.3, 69.6, 78, 61.4, 57.4, 63.2, 68.7, 73, 73.5, 62.7, 74.9, 45.5, 55.9%”. For the same molecule, the growth (0.25 µM, runs of 2019) was “inactive: 51.8, 47.8 (2×), 52.9 (2×), 42.8, 54.1, 54 (2×), 52.2, 53.7, 55.1, 59.3, 56.5, 61, 60.6, 60.9, 55.3, 60.3, 50.9, 63.1, 68.3, 51.1, 67.6 (2×), 57.5, 56.8, 63.7, 59.7, 50.6, 50.8, 72.5 (2×), 71.2, 85.8, 70.9, 68.2, 62.8, 77.9, 76.7, 76.8, 66.9, 74.5, 61.1%”, the growth (0.25 µM, runs of 2020) was “inactive: 58.4, 81.1, 88.9, 89.8, 65.5, 61.9, 59.1, 64.9, 63.5, 75.1 (2×), 74.9, 65, 64.6, 68.7, 72.1, 75.2, 70.7, 71.5, 78.7, 66.6, 78, 81.4, 66.7%” and the growth (0.25 µM, runs of 2021) was “inactive: 71.5, 73, 73.5, 72.1, 66.9, 65 (2×), 56.9, 56.1, 62.8, 71.8, 61.5, 59.8, 66.6, 70.8, 59, 62.9, 60.8 (2×), 64.9 (2×), 62.2, 59.5 (2×), 57, 57.2, 59.9, 55.9, 61.2, 60.6, 53.4, 58.4 (2×), 58.5, 71.4, 65.1, 67.7, 55.2, 54.5, 47, 38.8, 57.5, 76.1, 65.5, 65.6%”. For the same molecule, the growth (0.25 µM, runs of 2022) was “inactive: 18, 18.7, 54.7, 57.4, 10.4, 61.7, 36.4, 52.4, 58.8, 51.6, 57.9, 72.9, 65.3, 54.8, 57.6, 46.1, 84.2, 83.7 (2×), 59.8, 85.2, 88.9, 67.5, 59.6, 73%”, the growth (25 µM, runs of 1993) was “active: -95.9 (2×), -98.6, -59.6, -100 (4×), -95.7, -98.8, -86.8, -88, -96, -98.2, -98.1, -92.4, -84 (2×), -66.6, -74.8, -54.4, -75.9 (2×), -95.2, -90.9, -94.5, -98, -82.3, -60.6, -94.3 (2×), -63.2, -96.2, -73.6, -91.3, -98.9, -82.9, -99.4, -99.1, -93.7% and inactive: 100%” and the growth (25 µM, runs of 1994) was “active: -100 (6×), -99.5 (2×), -97.1, -94.3, -89.6, -99, -95.4, -76.9, -69, -96, -99.9, -89.1 (2×), -21.8, -99.6 (2×), -84.4, -70.9, -59.2, -94.9, -97.9, -97% and inactive: 66.7%”. The growth (25 µM, runs of 1995) was “active: -99.2 (2×), -97.9 (2×), -98, -87.2, -100 (8×), -93.2, -74.4, -96.7, -99.7 (2×), -79.7, -94, -98.7, -98.3, -99.8, -69.3, -91.5, -62.7, -84.2 (2×), -92.2, -66.8, -97.3, -99.3 (2×), -56.8, -93.5, -96, -93.4, -96.1, -77.8, -87.5%”, the growth (25 µM, runs of 1996) was “active: -98.5, -68.4, -98.3, -77.9, -73.1, -96.3, -94.7 (2×), -81.6, -81.5 (2×), -78.1, -77.8, -90.6, -87.9, -100 (6×), -75.9, -60.4, -68, -96.4, -71.5, -91.6, -95, -99.2, -58.8, -89.5, -74.4, -62.7, -75.5, -88.5, -99.6, -57.8, -78.7, -68.7, -67.3, -79.3, -98.8, -96.1, -88.3, -70.1, -99.8, -86.5, -99.3, -78.5, -60.5, -53.4, -69.7, -86, -84.3, -71.9% and inactive: 91.5%, 52.1%, 100%” and the growth (25 µM, runs of 1997) was “active: -94.8, -26, -89, -80.3, -74.6, -74.9, -44.8, -100 (4×), -85.4, -82.4, -98.1, -94.6, -76.6, -99.6, -89.4, -66.9, -97.6, -94.7, -69.9, -70.6, -98.4, -85.8, -58.9, -79, -99.1, -87.5, -82.2 (2×), -59.8, -75.3, -70.4, -94.9, -67, -51.4, -92.4, -67.7, -81.6, -89.1, -98%”.
